{"source": "patent US6348573", "target": "recombinant FADD (purified, detected with anti-(His)6 antibody) (UniProt Q13158)", "data": [{"substance": "Flag-tagged RICK (RIP-like interacting CLARP kinase), pcDNA3-Flag-RICK (letters omitted)", "values": [{"measurement": "in vitro kinase assay: phosphorylation of recombinant FADD by RICK immunoprecipitates with [gamma-32P]ATP", "value": "RICK induced phosphorylation of FADD"}]}]}
